Assay results: PMC6212790
Some of the results follow. At the low end of the ranking the order means little.

Biological target: T1, GST-Rok (full length) (UniProt O34857)
T1 sequence: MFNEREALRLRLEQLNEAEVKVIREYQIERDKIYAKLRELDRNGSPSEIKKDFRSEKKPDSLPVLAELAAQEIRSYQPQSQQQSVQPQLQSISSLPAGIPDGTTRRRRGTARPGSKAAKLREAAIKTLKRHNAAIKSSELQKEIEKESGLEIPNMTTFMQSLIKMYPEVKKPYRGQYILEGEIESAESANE
Assay: protein binding microarray;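 further: rank score from −0.5 (least bound) to 0.5 (best bound)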
Details: Rok is a gene silencer of Bacillus subtilis; high values mean tight binding; most listed sequences are background and not binding sites; double strand, one strand shown

| Sequence | binding signal [E-score] |
| --- | --- |
| ATCGACGC | -0.109 |
| AAAGGCGT | -0.101 |
| GCTATTAC | 0.269 |
| CATAGAGC | -0.0937 |
| CCATGCGG | -0.151 |
| ATACCAAG | -0.0148 |
| ACGTCTGG | -0.0674 |
| TCGAGGAA | -0.082 |
| ACGCCCCC | -0.307 |
| CCATTATC | 0.176 |
| GTAGTATA | 0.423 |
| TAGTAGCA | 0.258 |
| ATGGATAC | 0.105 |
| CTACGGTA | 0.175 |
| ATTGAGGC | -0.219 |
| TCGACAAA | 0.0413 |
| AGTTGTAC | 0.259 |
| AGACCCAC | -0.204 |
| CCGGAATA | 0.18 |
| AGCGGGAA | -0.261 |
| ACGTCGGG | -0.296 |
| CCCAGCCG | -0.339 |
| CGTGGTTA | 0.0207 |
| CACTCACG | -0.0587 |
| ATACGGAC | 0.0468 |

| Sequence | binding signal [E-score] |
| --- | --- |
| TTAGCAAA | 0.193 |
| AGACATAA | 0.0576 |
| GCGTAGTA | 0.17 |
| AGATGCGC | -0.078 |
| AACAAAGG | 0.0427 |
| GAAGGGTA | -0.119 |
| AATATTGG | 0.103 |
| GCTGTAAA | 0.151 |
| GAGCACGC | -0.216 |
| AGGAGACA | -0.111 |
| CTTCGACA | 0.0981 |
| AAGATCAC | 0.187 |
| ACGAAATG | 0.266 |
| TATTGAGA | 0.144 |
| CTTCCCTC | -0.276 |
| AAGCATCC | -0.194 |
| CTTGGTTA | -0.000206 |
| ATTAGTAG | 0.321 |
| CCGAGCTC | -0.0815 |
| ATTGAATA | 0.152 |
| CGGTCCTA | 0.0495 |
| CCAGGAAA | -0.0397 |
| CTCGAAAC | 0.0616 |
| GTGATGAA | -0.0945 |
| CCAGATGG | -0.226 |

| Sequence | binding signal [E-score] |
| --- | --- |
| CGACATCA | -0.0327 |
| CCATTAGC | 0.0149 |
| CGGTTGCC | -0.204 |
| AAATAACT | 0.301 |
| AGGTCATA | -0.0849 |
| ACGTCCGC | -0.108 |
| CAGTAATC | 0.0358 |
| CAGTCGTA | 0.0302 |
| ATTCCCAG | 0.0539 |
| AGGTAGTC | 0.0956 |
| GACTATTA | 0.157 |
| TCCGAGCA | -0.0443 |
| GGGAAGTA | 0.17 |
| AACGGGAC | -0.135 |
| AGTTAGAA | 0.216 |
| CACCGTGC | -0.18 |
| CTTTTAGA | -0.223 |
| CAATCGAG | 0.0306 |
| GCTTAGTA | 0.173 |
| GGCTCAGA | -0.171 |
| GGACTGCC | -0.308 |
| ATTTCCGG | 0.00643 |
| CATGTCGC | 0.00122 |
| CCGAAAAG | 0.111 |
| ACAGACTC | -0.119 |

| Sequence | binding signal [E-score] |
| --- | --- |
| TGGAGCCA | -0.151 |
| GGGTATCA | -0.113 |
| ACGTGACG | -0.186 |
| CCGTAAGG | -0.352 |
| CGACATCG | 0.0122 |
| CGCTAGAA | 0.269 |
| TATGTTGA | 0.201 |
| CAGGCCGG | -0.159 |
| ATGGGATG | -0.052 |
| AAATTGCA | 0.0879 |
| ATCTCAGG | 0.0391 |
| ATTCAAAG | -0.0764 |
| GACAATAA | 0.139 |
| CGCGGCCG | -0.3 |
| GCACGCGA | -0.188 |
| AGAAATGC | -0.0536 |
| CCTTATTA | 0.0164 |
| GCCGCGTA | 0.00524 |
| GCGGGCCA | -0.363 |
| AGACAGGG | -0.179 |
| CCATGTGC | -0.0638 |
| TGTCATAA | 0.146 |
| GATGCTCC | -0.191 |
| CGCCCCAA | -0.264 |
| CCAAAGAC | -0.185 |

| Sequence | binding signal [E-score] |
| --- | --- |
| AACGAACT | 0.163 |
| ACCGTTCT | 0.0843 |
| AAAAATCA | 0.101 |
| AGCACCAC | -0.177 |
| ATGATCTG | 0.0326 |
| GTCATCGA | 0.0855 |
| GCTGCTCC | -0.369 |
| GAATCCCA | -0.18 |
| AAGGAGAT | -0.00602 |
| CTAATATA | 0.349 |
| GAAAGTAC | 0.321 |
| TACTCACA | 0.0135 |
| ATGGGTAG | 0.263 |
| ATTATCCC | 0.205 |
| AGAAACAA | 0.253 |
| AGTACATG | 0.131 |
| GCAATTGA | 0.146 |
| ACAGTGCC | 0.00808 |
| GTGAGCGA | -0.169 |
| ACGCGTGA | -0.0933 |
| AAAGACGC | -0.0887 |
| ATTGTCTC | 0.0458 |
| CAAGAGGA | -0.231 |
| ATAAATCG | 0.238 |
| ATATGAGA | 0.0881 |

| Sequence | binding signal [E-score] |
| --- | --- |
| ATCCGGCC | -0.173 |
| AGTGGAAC | -0.038 |
| AGAGGTGG | -0.104 |
| CAGGCGCG | -0.0887 |
| GTATGAGA | 0.0785 |
| TAGGTTGA | 0.0689 |
| CTGAGCAA | 0.0253 |
| ACGTGATC | 0.1 |
| CCAGGTAG | 0.0972 |
| GCTTCAAA | -0.299 |
| TCCGTCGA | -0.0492 |
| ACACGGAA | -0.0276 |
| AGCGAGGG | -0.224 |
| ACTTCGTC | -0.0747 |
| AAGCGTTA | -0.118 |
| AACGTATC | 0.0544 |
| AACTCCTT | -0.272 |
| AATCACAC | 0.102 |
| ACGTGAGC | -0.173 |
| GCGAATCA | -0.236 |
| CTACTTTA | 0.31 |
| AGCCCTTC | -0.17 |
| CCGCGGTC | -0.302 |
| AGCTCTAT | 0.0862 |
| AGCACCTA | 0.0334 |

| Sequence | binding signal [E-score] |
| --- | --- |
| CTGAAACA | -0.325 |
| GAGAGTAA | 0.0727 |
| CTCAATCA | -0.176 |
| AGCTACGC | 0.0208 |
| GGTGGAAC | -0.21 |
| GTGTCTCA | -0.215 |
| GTCCGGAC | -0.0589 |
| ACGCCCTC | -0.344 |
| ACGGAAGT | 0.157 |
| ATTGAGTG | 0.0352 |
| GTGGCTAA | -0.053 |
| AGTTCATG | 0.12 |
| ATTATGCG | 0.0785 |
| CGATGGTA | 0.276 |
| AACTTTAT | 0.173 |
| CACACAAC | -0.0368 |
| CCCTTATC | -0.109 |
| ACTTGAAT | 0.14 |
| AATCCGGA | -0.113 |
| ACCTTTAT | 0.129 |
| CAGTCTGA | -0.176 |
| AATCCGAA | 0.0235 |
